# Laboratory results reported in the supplement of paper PMC3334620.
# The full ranking holds about 33,000 sequences; the median of “E-score (-0.5 to 0.5)” is about -0.016, and the highest 2% start at about 0.31. This is one part of the list.
# Target: Cst6 (UniProt P40535)
# Experiment: PBM E-score (8-mer binding enrichment) (E-score (-0.5 to 0.5)); higher = stronger / more preferred TF binding; most listed sequences are background and not binding sites
# Conditions: protein concentration: 200 nM; construct: GST-DNA-binding domain
# Summary of the method: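 Using PURExpress in vitro transcription/translation, GST-tagged yeast transcription factors were made in full-length or DNA-binding-domain form. These were applied at about 100-200 nM to double-stranded universal all-10-mer Agilent arrays, and bound protein was detected with fluorescent anti-GST. Scans were normalised with masliner before the Universal PBM Analysis Suite assigned E-scores to ungapped eight-base words pooled with their reverse complements.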
row,Sequence,PBM E-score
1,ACGTCCCA,-0.0471
2,ACTGCGAA,-0.0466
3,AGGGTAGA,-0.138
4,GGTACGGA,-0.0778
5,ATGACTAC,0.0922
6,CTAAGCGA,-0.235
7,CCAGTAAG,-0.0688
8,GCTCCTAC,-0.133
9,GCGCAGCA,-0.197
10,ATTGAACG,0.169
11,ATCGTTGC,-0.098
12,CTGGTAAA,-0.0568
13,ACGCTTTG,0.0492
14,GCTATCCC,-0.246
15,CAGCCTAG,-0.145
16,AAGCAAAT,0.0467
17,ATCACGAG,0.0226
18,AGGACCAG,-0.277
19,AGCGTAAG,0.0543
20,GGCACAGA,-0.0635
21,AGCCGCCT,0.0766
22,CGCGGACG,0.00248
23,ACTCTGAT,0.108
24,ACTGGCGC,0.131
25,CCCTTCTA,-0.0471

row,Sequence,PBM E-score
1,AAGGCGCA,0.108
2,AGAGAAAC,0.0803
3,CCAATGCA,-0.169
4,GTAAACGA,0.135
5,AACCGGCC,-0.23
6,GTGACTGA,0.153
7,GCGAGAAA,-0.022
8,CTGGGGCA,-0.365
9,TAACGTCA,0.489
10,AGAACCCC,-0.282
11,TGTATGAA,0.107
12,AACTTCAT,0.0891
13,GGGATTCA,-0.196
14,CCTGTTCG,-0.0951
15,CTCGTATA,-0.133
16,CCACCTCG,-0.259
17,ACTGCCTA,-0.0449
18,AAAAGTAA,0.206
19,CCGAAAGG,-0.0268
20,CACGACGG,0.134
21,CGATAGCC,-0.107
22,AGGTGAAT,0.0319
23,ACATCCAG,-0.0936
24,GGAAGGTA,-0.0638
25,GAGTAACC,-7e-05

row,Sequence,PBM E-score
1,GAGGGGCA,-0.203
2,CTGTATGC,-0.159
3,GAAAGATC,-0.0988
4,GGGGGGAA,-0.358
5,CAATGAGG,-0.135
6,AGTGCTAT,-0.169
7,CAATAGGC,-0.0817
8,ACGTGCCA,0.127
9,CCCGCGGG,-0.0798
10,ATCGTCTG,-0.113
11,GGACCGTA,-0.222
12,GCACAGCA,-0.0492
13,AACAACGT,0.157
14,GCACAGAA,0.109
15,AGACGATC,-0.291
16,ACTGGGAC,-0.156
17,CCGGAGTA,-0.0764
18,CATACCAA,-0.0245
19,CTGCGTTC,0.0127
20,AGGCCCAG,-0.214
21,GATAGCCA,-0.0836
22,CATGCTAC,-0.263
23,ACTATATA,0.316
24,CCCGACCC,-0.246
25,ACCGAGTC,-0.162

row,Sequence,PBM E-score
1,ACCGACAG,-0.176
2,CTGATAAA,0.144
3,GCTTGCTA,-0.306
4,AGTTGAGA,-0.143
5,GGCGCCAA,0.151
6,CGTCAGTC,0.269
7,AAGTTTCA,0.131
8,CGCACACA,0.0465
9,GGCGGCCA,-0.112
10,TATACTAA,0.05
11,ATATTCGG,0.0167
12,ATTTACGC,0.129
13,ATAGTAAC,0.094
14,GGACGCAA,0.0196
15,ATGCGTCC,-0.213
16,ACAGTCAA,-0.0565
17,ACGTTACT,0.138
18,CATTGTCG,0.0137
19,AACACAAA,0.0222
20,TCAAAGCA,-0.014
21,GCGAGCTA,-0.0222
22,AGAGTAAA,0.0878
23,CGCTACGA,-0.0135
24,CGTGCCCC,-0.106
25,CACAGGAG,-0.0229

row,Sequence,PBM E-score
1,CTCGAACC,-0.0843
2,CTGTGTGC,-0.0916
3,TAACAGTA,0.163
4,CATTGTAG,0.00951
5,CTTGTTCC,-0.101
6,GAACACTA,0.049
7,ATTGTTTA,0.206
8,AGGTATTG,0.0278
9,ACGACCTC,0.128
10,CCTCCAGC,-0.413
11,ATATACAT,0.16
12,GAAACTAC,0.0682
13,CGTGTCAG,0.0262
14,AAATTCCT,0.00077
15,ATAGTTCG,0.0128
16,CTGTGAAA,0.149
17,CAGGCTAG,-0.344
18,ACGCACGA,0.194
19,ATGTGGAC,-0.133
20,CTACTTGA,0.0439
21,GCTCTAGA,-0.274
22,ATGGACGA,0.103
23,GGCAGCCA,-0.243
24,CCTTCTTA,-0.105
25,CAGATCCC,-0.216

row,Sequence,PBM E-score
1,CACAACCG,0.143
2,ATAAGATC,0.16
3,GGACCGGA,-0.307
4,AGGACCGG,-0.421
5,GAATATCA,0.0496
6,CGTGAAGA,0.00552
7,CTGGACGC,-0.244
8,ACCAAAAC,0.0609
9,ACCGGGAG,-0.317
10,ATGTCTCC,-0.135
11,TAACACTA,0.225
12,TGAGATAA,0.19
13,CATGCTGG,-0.283
14,CTCTGATC,-0.0257
15,ATCCAAGA,0.074
16,CGCCAAAA,0.113
17,ACTTCGAC,0.108
18,GACGAGCA,-0.0395
19,ACGACAGA,-0.00441
20,GTGGAATA,0.054
21,ACTCCGCG,-0.0486
22,ACCGGCGC,0.0961
23,ATGTTGTG,0.101
24,CATTCTTA,0.0912
25,AGGAACTG,-0.254

row,Sequence,PBM E-score
1,ACCGCCAA,-0.0862
2,TATTCCAA,0.0973
3,TCGACCAA,0.0787
4,GTGGCGTA,0.149
5,GCGTAGAC,-0.149
6,CTGTTACC,-0.117
7,GGCCCAGA,-0.383
8,AAGCCGAT,0.139
9,TTACAAAA,0.256
10,ATAATCAC,0.228
11,CCTCGTCC,-0.35
12,CCTCTGAA,-0.187
13,GGTATGAC,0.191
14,ATATGTTC,-0.0116
15,CCGTGCTC,0.00474
16,AAAGAATG,0.187
17,GACCTGGA,-0.283
18,AACCTCCT,-0.216
19,GCCCCACC,-0.00672
20,AGTGGCCC,-0.195
21,CAATCCGA,0.0251
22,AGCCTAAC,-0.0372
